Test results from PubChem BioAssay AID463173 (ICCB-Longwood Screening Facility, Harvard Medical School, 2010).
Hit rate of the full screen: of about 52,000 compounds, about 4,300 (8.3%) were called active. Rule as the data show it: active = survival mostly below about 52% (no sharp cut-off); inactive = mostly above about 56%. The list shows a part of the results.

These compounds were tested on DeltatarO mutant (assay: growth inhibition of S. aureus wild type versus tarO mutant, primary screen, teichoic acid synthesis inhibitors, RN4220, OD600 (AID 463173)). Settings: OD600, 18 h, hits give low values, screened at 18.75 µg/mL (by protocol).
In the case of `COc1cccc(N2CCN(C(=O)C3CCCN(S(=O)(=O)c4cccc5nsnc45)C3)CC2)c1` (stereo not drawn), the survival is reported as inactive: 71%. With `Cc1ccc(CNC(=O)CCc2c(C)nn(-c3ccc(N4CCOCC4)nn3)c2C)cc1` the survival was inactive: 116%. With `CCOc1ccc(C(=O)c2cn(CC(=O)Nc3ccc4c(c3)OCO4)c3ccc(OC)cc3c2=O)cc1` the survival was inactive: 104%. `COc1ccc(NC(=O)C2CCCCN2)cc1OC` (stereo not drawn) was tested, and the survival was inactive: 94%. For `CCNC(=O)c1ccc2c(c1)nc1n2CCCCC1`, the survival was inactive: 97%. With `Cc1ccccc1OCc1nc2c3cnn(-c4cccc(F)c4)c3ncn2n1` the survival was inactive: 88%. In the case of `Cc1c(CNC2CCCCC2)c(C(=O)O)c(C)n1Cc1ccccc1F`, the survival is reported as inactive: 88%. In the case of `CC1(C)N=C(SCc2ccc(F)cc2)c2ccccc2N1`, the survival is reported as inactive: 107%. In the case of `O=C(Cn1cc(C(=O)C(F)(F)F)c2ccccc21)N1CCCCCC1`, the survival is reported as inactive: 56%. In the case of `CCOc1ccccc1NC1(c2ccccc2)C(=O)c2ccccc2C1=O`, the survival is reported as inactive: 93%. With `CCC(=O)N(Cc1ccco1)c1nc(-c2ccccc2)cs1` the survival was inactive: 81%. With `CC(=O)N1c2ccc(S(=O)(=O)NCc3ccccc3Cl)cc2CC1C` (stereo not drawn) the survival was inactive: 70%. For `CCCc1nnc(NC(=O)c2cc(=O)c3ccccc3o2)s1`, the survival was inactive: 63%. `COc1ccc(N2CCN(C(=O)C3CCCN(C(=O)c4cc5sccc5n4C)C3)CC2)cc1` (stereo not drawn) was tested, and the survival was inactive: 115%. With `CCCCNC(=O)CN1C(=O)c2cccnc2Sc2ccccc21` the survival was inactive: 72%. With `CC1=C(C(=O)Nc2cccnc2)C(c2cccc(F)c2)n2nc(SCc3ccccc3F)nc2N1` (stereo not drawn) the survival was inactive: 62%. In the case of `O=C(CSc1nc(=O)[nH]c2c1CCCC2)NCc1ccccc1Cl`, the survival is reported as inactive: 124%. For `COc1ccc(C)cc1NC(=O)c1cc(S(=O)(=O)N2CCOCC2)cn1C`, the survival was inactive: 79%. In the case of `O=C(O)CCNc1ccc2c(c1)OCCO2`, the survival is reported as inactive: 86%. For `O=C1CCCc2nc(N3CCOCC3)sc21`, the survival was inactive: 93%. In the case of `CCNC(=O)c1c(NC(=O)Cc2coc3ccc(CC)cc23)sc2c1CCCC2`, the survival is reported as inactive: 79%. In the case of `CC(=O)N1CCCc2cc(S(=O)(=O)N3CCN(c4ccccc4F)CC3)ccc21`, the survival is reported as inactive: 73%. For `COc1cccc(C2C(C(=O)Nc3ccc(Cl)cc3)=C(C)Nc3nc4ccccc4n32)c1OC` (stereo not drawn), the survival was inactive: 126%. With `Cc1oc2ncn(CC(C)C)c(=O)c2c1C(=O)N(CCN(C)C)Cc1ccccc1` the survival was inactive: 97%. For `COc1cccc(-n2cnc3scc(-c4cccs4)c3c2=O)c1`, the survival was inactive: 87%. In the case of `CCCCNC(=O)c1ccc2c(c1)N(CC)C(=O)c1ccccc1S2`, the survival is reported as inactive: 102%. For `Cc1ccc2c(c1)N(C(=O)N1CCC(C(=O)NCc3ccccc3C)CC1)CC(C)O2` (stereo not drawn), the survival was inactive: 74%. With `CCCCNC(=O)c1c(-c2ccccc2)c(-c2ccccc2)nn(C)c1=O` the survival was inactive: 46%. For `Cc1ccc(Cl)cc1N1CCN(C(=O)CN2C(=O)COc3ccc(S(=O)(=O)N4CCCCCC4)cc32)CC1`, the survival was inactive: 60%. With `CCN(Cc1ccccc1)C(=O)c1cc(-c2ccccc2)n[nH]1` the survival was inactive: 91%. In the case of `COc1ccc(S(=O)(=O)NCCSc2nnnn2-c2ccccc2)cc1OC`, the survival is reported as inactive: 127%. With `Cc1c(C)n(Cc2ccccc2)c2ccc(C(=O)N3CCN(c4ccc(F)cc4)CC3)cc12` the survival was inactive: 94%. `CC(C)CCNC(=O)c1ccc2c(c1)NC(=O)C(C(C)C)N2` (stereo not drawn) was tested, and the survival was inactive: 51%. In the case of `Cc1oc2ccc(O)c(CN3CCOCC3)c2c1C(=O)Nc1cccc(C(F)(F)F)c1`, the survival is reported as inactive: 59%. For `Cn1cnc(S(=O)(=O)N2CCCC(C(=O)NCc3ccc(Cl)cc3)C2)c1` (stereo not drawn), the survival was inactive: 102%. In the case of `CCN(CC)S(=O)(=O)c1ccc2c(c1)N(CC(=O)N1CCN(c3ccc(OC)cc3)CC1)C(=O)CO2`, the survival is reported as inactive: 67%. `Cc1ccc(NC(=O)N2CCCC2C(=O)NCC2CCCCC2)cc1` (stereo not drawn) was tested, and the survival was inactive: 86%. `Cc1ccccc1Nc1c(-c2cccc(Cl)c2)nc2ncccn12` was tested, and the survival was inactive: 92%. In the case of `COc1cc2[nH]c(=O)n(Cc3ccc(C(=O)N4CCN(c5ccc(Cl)cc5)CC4)cc3)c(=O)c2cc1OC`, the survival is reported as inactive: 77%. In the case of `O=C(Nc1cccc(Cl)c1Cl)c1ccc2c(c1)N(Cc1cccc(Cl)c1)C(=O)c1ccccc1S2=O` (stereo not drawn), the survival is reported as inactive: 80%. For `Cc1ccc(C)c(NC(=O)Cn2nc(C)c3nn(-c4ccc(Cl)cc4)c(C)c3c2=O)c1`, the survival was inactive: 103%. With `CCn1c2ccccc2c2cc(CN3CCN(Cc4cc(OC)c(O)c(OC)c4)CC3)ccc21` the survival was active: 43%. For `COc1ccc(N2CCN(c3ccc(-c4nc(-c5ccccc5)no4)cc3[N+](=O)[O-])CC2)cc1`, the survival was inactive: 74%. With `COc1ccc(CNC(=O)CCS(=O)(=O)c2cc(Br)cc3c2N(C(C)=O)C(C)C3)cc1` (stereo not drawn) the survival was inactive: 92%. `CCOc1ccccc1NC(=O)CCCc1nc(-c2ccccc2Cl)no1` was tested, and the survival was active: 38%. In the case of `CCOc1ccc(CCNC(=O)c2cc3c(=O)n(CC)c4ccccc4c3s2)cc1OCC`, the survival is reported as inactive: 60%. `CCc1cccc(NC(=O)CSc2nncn3c2cc2sccc23)c1` was tested, and the survival was inactive: 58%. In the case of `CCOc1ccc(CCNC(=O)Cn2c(-c3cccs3)cc3cc(F)ccc32)cc1OCC`, the survival is reported as inactive: 68%. `CCc1cccc(CC)c1NC(=O)Cn1c(=O)c(-c2cc(C)ccc2NC(C)=O)nc2ccccc21` was tested, and the survival was inactive: 79%. With `CCc1ccc(CN(Cc2ccco2)c2cnc(S(C)(=O)=O)nc2C(=O)Nc2c(C)cccc2C)cc1` the survival was active: 36%. With `CCCc1cc(N2CCN(c3ccccc3)CC2)n2cnnc2n1` the survival was inactive: 67%. In the case of `Cn1c(=NC(=O)c2ccc(S(=O)(=O)N3CCCC3)cc2)sc2cc(F)ccc21`, the survival is reported as inactive: 168%. For `CCc1ccccc1NCc1nnc2n1CCCCC2`, the survival was inactive: 94%. With `Cn1c(CSc2nc3ccccc3s2)nnc1SCC(=O)NCCCN1CCOCC1` the survival was inactive: 87%. In the case of `O=C1COc2cc(S(=O)(=O)CCC(=O)N3CCN(c4ccccc4F)CC3)c(Cl)cc2N1`, the survival is reported as inactive: 87%. For `Cc1ccccc1CNc1nc(N(C)C)nc2c1cnn2C`, the survival was inactive: 72%. With `O=C1CC(Sc2ccccc2)C(=O)N1c1ccccc1` (stereo not drawn) the survival was inactive: 92%. With `Cc1ccc(NC(=O)C2CCN(S(=O)(=O)c3ccc4[nH]c(=O)ccc4c3)CC2)cc1C` the survival was inactive: 73%.
